44 sequences from the supplement of paper PMC11417369 can be followed below.

± gives the standard deviation of the averaged measurements. Some of the results follow.

The assay has as its system PfAP2-LT AP2 domain (GST-tagged). Put plainly: gcPBM binding intensity (ln(normalized median fluorescence intensity)); higher = stronger DNA binding. The essentials:
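Using an Agilent 4 × 180k array, primer-extended double-stranded 36-bp intergenic genomic probes and negative controls were exposed for 1 h to GST-fused P. falciparum DNA-binding domains expressed in E. coli. Binding was carried out in 1× PBS with 1% milk, 0.2 mg/ml BSA, 0.5% salmon testes DNA and 0.03% Triton X-100, and protein was detected with Alexa488 anti-GST antibody and a 488 nm scan. Binding intensity is the highest Masliner-normalised natural-log median intensity across replicate spots of either probe orientation.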
Consider “AATAGAAATTATATAAACATAAATGAATAAATAAAT [CACACA_negctrl_site1817]”, for which the “gcPBM binding intensity (ln)” value is 8.86 ± 0.46.
With “AATTAAATGGATAAATGTACATATGTGAATATATTT [XGTACX_site84]”, the “gcPBM binding intensity (ln)” value was determined as 8.98 ± 0.54.
The value for “TTACACAAGGATAAAAACATATGTATGATTATATAT [CACACA_negctrl_site654]” was 8.89 ± 0.47; that for “AAAATTTGAAAAAGGGGTACTTAATAAAAGTTTCAT [XGTACX_site932]” was 8.52 ± 0.45; that for “ATACTGTATAGTCGCACACAAAAATATAAAATATTT [CACACA_site6004]” was 9.28 ± 0.34.
For the sequence “ATAATTAACAAATACACACACACACCCAGACAAAAA [CACACA_site4445]”, the “gcPBM binding intensity (ln)” value stood at 10.2.
With “AAAATATTAAATATGTGTACATATAATAGTTCAATG [XGTACX_site5957]”, the “gcPBM binding intensity (ln)” value turned out to be 8.79 ± 0.46.
On to “AAACAAATAAAAATATGTACACATTTTTTCATTATG [XGTACX_site5449]”, for which the “gcPBM binding intensity (ln)” value is 8.71 ± 0.43.
The value for “TTAAAAGAAAATAGGTGTACACATAATATATACATA [XGTACX_site7697]” was 8.96 ± 0.67.
As to “AATATGTCTTAAAAAAGTACATAAATTTTAACTTCA [XGTACX_site6670]”, the “gcPBM binding intensity (ln)” value came to 8.35 ± 0.3.
Turning to “TTTTTAATCATAATATGTACATATAAAAATGGTTTG [XGTACX_site3996]”, the “gcPBM binding intensity (ln)” value is 8.54 ± 0.41.
The value for “TGTGTATATATAAATACACACCAAATGTTAATATAT [CACACA_site8501]” was 8.95 ± 0.4; that for “AACAATTAGAATAACGCATGCATTTATAATATAGAA [TGCATGCA_site595]” was 9.02 ± 0.47.
Regarding “TTTTTATTTTTTTATGCATGTGATGAAACGTGCCTA [TGCATGCA_site141]”, the “gcPBM binding intensity (ln)” value amounted to 8.89 ± 0.51.
As for “TAATAAATCAAATGCACACACACAAAAAAAAAAAAA [CACACA_site161]”, the “gcPBM binding intensity (ln)” value came to 9.61 ± 0.38.
For “AAAAGGAGCAAATACAAAAAAATGAACAAAAAAAAA [CACACA_negctrl_site716]”, the “gcPBM binding intensity (ln)” value is 8.8 ± 0.61.
In the case of “TTTTTCTTTGAATAAATACACACGAGAAATGAAAGT [CACACA_site1688]”, the “gcPBM binding intensity (ln)” value came to 8.7 ± 0.38.
Turning to “CATACCTATAGACACACACACACACGCACGCACAAA [CACACA_site6374]”, the “gcPBM binding intensity (ln)” value amounted to 10 ± 0.18.
Turning to “TTTTGTAATGCTTTTTTTTTTTTTTTTTTTTTTTTT [CACACA_negctrl_site932]”, the “gcPBM binding intensity (ln)” value is 8.64 ± 0.35.
On to “TCATATATATATATATGTACATATTTATGTATGTAT [XGTACX_site6291]”, for which the “gcPBM binding intensity (ln)” value is 9.01 ± 0.3.
Turning to “ACATAGATCATAGGTTGTACGAAGGTATCCTTTATT [XGTACX_site694]”, the “gcPBM binding intensity (ln)” value is 8.84 ± 0.38.
For “ACTTTTTGAATGTTTGCACACAAATCTCATAATTTT [CACACA_site358]”, the “gcPBM binding intensity (ln)” value stood at 9.23 ± 0.4.
As to “AAAAAAAAAAAAAAATGTACTTTTATTATTAATATA [XGTACX_site6357]”, the “gcPBM binding intensity (ln)” value stood at 8.33 ± 0.38.
“AGTTCATATTTAAAAAGTACATATTTAAAAACTTCT [XGTACX_site4882]”: the “gcPBM binding intensity (ln)” value amounted to 8.43 ± 0.4.
The value for “TTTGAACTTTTATATACACACATTATTATAGTATAG [CACACA_site6851]” was 8.87 ± 0.41; that for “ATGCATATATTTATGTGTACATATATTTGTAGGGGG [XGTACX_site6063]” was 10.2 ± 0.36; that for “ATATCGTTTTTAAATTGTACATTCACTATAGAATAA [XGTACX_site6442]” was 8.57 ± 0.49.
As for “TTTATTTTTCATTGGGGTACACAAGTTTATTTTTGA [XGTACX_site4262]”, the “gcPBM binding intensity (ln)” value was 8.71 ± 0.41.
Consider “TTCTTTGTTTTTTTTTTTTTTTTAAAAGATAATATT [XGTACX_negctrl_site381]”, for which the “gcPBM binding intensity (ln)” value is 8.28 ± 0.52.
As for “ATATATTTATTTTGTGCACACAACGCAAACCTTTTA [CACACA_site3508]”, the “gcPBM binding intensity (ln)” value was 9.28 ± 0.49.
For “TATATCGCCTTCAAAAGTACTCATATAAAAAAAAAA [XGTACX_site7123]”, the “gcPBM binding intensity (ln)” value was determined as 8.21 ± 0.42.
Take “ATTTTTTCTTTTCGATGTACCCTTCTTATTCTTTAT [XGTACX_site3782]”: the “gcPBM binding intensity (ln)” value came out at 9.06 ± 0.61.
With “AGAATATATAAGTATACACACATATATATATATATA [CACACA_site201]”, the “gcPBM binding intensity (ln)” value amounted to 9.91 ± 0.36.
Regarding “ATATCGAAAATTTGGTGTACATTTTTATTTGTTCAA [XGTACX_site3094]”, the “gcPBM binding intensity (ln)” value is 8.74 ± 0.47.
“GATATTACGTGTTTGGTATTTTTTGATGTTAATAGG [CACACA_negctrl_site105]”: the “gcPBM binding intensity (ln)” value came out at 8.93 ± 0.45.
In the case of “TTATAAATATTCACTGTGCACTGATGGAATATAAAT [GTGCAC_site9739]”, the “gcPBM binding intensity (ln)” value is 8.67 ± 0.41.
Consider “TATAAAATAATTAAATGTACATAATATATAAAATAT [XGTACX_site6777]”, for which the “gcPBM binding intensity (ln)” value turned out to be 8.72 ± 0.5.
For the sequence “AACAAAGAGAAATAAACACACACAAAATAAAGAAAA [CACACA_site8704]”, the “gcPBM binding intensity (ln)” value came out at 9.46 ± 0.46.
As for “ATTAATTAAAATAGTTGTACAATCAAAAAAACAAAA [XGTACX_site7660]”, the “gcPBM binding intensity (ln)” value stood at 8.85 ± 0.52.
As for “TTTTTGTATGCTTCCCGACTACATTATGTCGTAAAT [GTGCAC_negctrl_site164]”, the “gcPBM binding intensity (ln)” value was determined as 8.91 ± 0.49.
In the case of “AAATTAAAAATAATTACACACATAGAAAAGTTATAT [CACACA_site7137]” it was 8.95 ± 0.43; in that of “TTTTGCAAATATTACTGTACACAATCTCATATAATT [XGTACX_site2584]”, 8.81 ± 0.35; in that of “TTTTCAGAAAGACATGCATACAAAAATAAAAAAGAT [TGCATGCA_site814]”, 8.89 ± 0.45.
For the sequence “CATTCTACAATAAAAAGTACATATATATATTATATA [XGTACX_site921]”, the “gcPBM binding intensity (ln)” value worked out at 8.55 ± 0.53.
